Laboratory results taken from PubChem BioAssay AID504832 (National Center for Advancing Translational Sciences (NCATS), 2011).
The campaign covered roughly 310,000 compounds. About 18,000 (5.8%) were called active. The inconclusive results got no clear call from the source; some entries with a clear call stand among them for comparison. Calls follow the shape of the dose curve; as a rule, active = well fitted inhibition curve with a large enough effect; inconclusive = small, poorly fitted or top-dose-only effect, or another doubt; inactive = no such curve, though single readings can be large or run the other way. Potencies of inconclusive entries are left out as doubtful fits.

test: Primary qHTS for delayed death inhibitors of the malarial parasite plastid, 48 hour incubation; conditions: P. falciparum luciferase growth in erythrocytes; series mostly up to 28.7 µM
Summary of the method: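 Luminescence readout; reporter = integrated firefly luciferase in P. falciparum. RBC culture at 2% hematocrit, 0.1% parasitemia final, 37 C/5% CO2; decreased signal taken as growth inhibition.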
Potency is read from the fitted curve at half-maximal effect; tags tell the direction and shape of the fitted curve.

Structure (SMILES) | Potency
Cc1ccc(Cl)cc1NC(=O)C(NS(=O)(=O)c1cccs1)c1ccccc1 (stereo unspecified) | inactive
CCOC(=O)C1C(=O)C=C(c2cccs2)CC1c1ccccc1C (stereo unspecified) | inconclusive [inhibitor, single point]
O=C1Nc2cc(C(=O)N3CCN(c4ccccn4)CC3)ccc2S/C1=C\c1ccccc1 | inconclusive [inhibitor, full curve, poor fit]
CCOC(=O)c1cnc(SC)nc1Sc1cc(Cl)ccc1Cl | inconclusive [inhibitor, full curve, poor fit]
CCOC(=O)c1cnn(-c2ccc(F)cc2)c1N | inactive
O=C(CN(C1CCCCC1)S(=O)(=O)c1ccc(Cl)cc1)NCc1ccncc1 | inconclusive [inhibitor, partial curve]
CCCC/C(O)=C1\C(=O)CC(C)(C)CC1=NCCCCCC(=O)O | inconclusive [inhibitor, full curve, poor fit]
CC(=O)Nc1ccc2nc(SCC(=O)Nc3ccc(N4CCOCC4)c(Cl)c3)sc2c1 | inactive
COc1ccc(C2=Nc3nc(-c4ccccc4)cn3C(c3ccc(OC)cc3)C2)cc1 (stereo unspecified) | active: 2.94 µM
CN(Cc1cccnc1)Cc1cn(C)nc1-c1cccc(Cl)c1 | inconclusive [inhibitor, single point]
CCN(CC)c1ncnc2c1cnn2Cc1ccc(C)cc1 | inconclusive [inhibitor, partial curve, poor fit]
O=C(NNc1nc2c(F)cccc2s1)c1ccccc1 | inconclusive [inhibitor, partial curve, poor fit]
CN(C)CCNC(=O)c1ccc(COc2ccc(Cl)cc2Cl)cc1 | inconclusive [inhibitor, partial curve, poor fit]
CCN(Cc1ccccc1OC)CC1CCCN(CCc2cccc(OC)c2)C1 (stereo unspecified) | inconclusive [inhibitor, partial curve, poor fit]
O=C(Nc1ccc(F)c(Cl)c1)Nc1csc2ccccc12 | inconclusive [inhibitor, single point]
CN1CCN(c2ncc(CN3C(=O)c4ccccc4C3=O)s2)CC1 | inconclusive [inhibitor, single point]
CC(C)(C)Nc1nc(NC(C)(C)C)nc(-n2ccnc2)n1 | active: 1.31 µM
CC(=O)N1c2ccc(S(=O)(=O)NCC3CCC(C(=O)NCc4ccccc4)CC3)cc2CC1C (stereo unspecified) | inconclusive [inhibitor, partial curve]
COc1cc2ccc(=O)oc2c(O)c1OCC=C(C)C | inactive
Cc1cc(C)c(S(=O)(=O)N2CCCCC2CCNC(=O)C(=O)NCCN2CCOCC2)c(C)c1 (stereo unspecified) | inactive
Cc1c(Cl)c([N+](=O)[O-])nn1Cc1ccc(C(=O)Nc2ccc(Cl)cn2)o1 | inactive
Clc1ccc(-c2nc(N3CCOCC3)nc3ccccc23)cc1 | inactive
Cc1ccc(C)c(NCc2n[nH]c(=S)n2-c2ccccc2)c1 | inconclusive [inhibitor, full curve, poor fit]
CCCCOCCCN1CC(=O)N2[C@@H](Cc3c([nH]c4ccccc34)C2(C)C)C1=O | inconclusive [inhibitor, partial curve]

Structure (SMILES) | Potency
S=C(Nc1cccc(Cl)c1)NC1CC2CCCC(C1)N2C1CCCC1 (stereo unspecified) | active: 3.29 µM
CCN(CC)CCN1C2=C(C(=O)CC(C)(C)C2)C(c2cccc(F)c2)C2=C1CC(C)(C)CC2=O | inconclusive [inhibitor, partial curve]
C[CH2][Hg][S]c1ccccc1C(=O)O | active: 1.9 µM
O=C(Cn1ncc2c3ccccc3n(Cc3ccccc3)c2c1=O)NCCCN1CCCC1 | inconclusive [inhibitor, single point]
CCOC(=O)C1CCN(C(=O)c2sc3nc(C)nc(N4CCC(C)CC4)c3c2C)CC1 | inconclusive [inhibitor, single point]
CSc1ccccc1C(=O)C1CCCN(C(=O)CCN2CCCO2)C1 (stereo unspecified) | inactive
CCCOc1ccc(-c2nc(C#N)c(NCCCn3ccnc3)o2)cc1 | active: 10.4 µM
CCn1c(=O)c2sccc2n(CC(=O)NCCC2=CCCCC2)c1=O | inactive
N#C/C(=C\C1=C(N2CCOCC2)C(=C/c2cccc([N+](=O)[O-])c2)/CC1)C(=O)Nc1ccccc1F | inconclusive [inhibitor, partial curve]
O=C(Cc1ccccc1Cl)Nc1cccc(S(=O)(=O)N2CCOCC2)c1 | inactive
COc1ccc(/C=C(/NC(=O)c2ccc(OC)cc2)C(=O)NCCc2c[nH]c3ccccc23)cc1 | inconclusive [inhibitor, single point]
CC(C)c1nc(SCC(=O)N2CCCc3ccccc32)c2c(=O)n(C)c(=O)n(C)c2n1 | inconclusive [inhibitor, single point]
CCOc1ccc(NC(=S)N(CC)Cc2ccccc2)cc1 | inactive
COc1ccccc1/C=C/CN1CCN(Cc2ccc(C)o2)C(CCO)C1 (stereo unspecified) | inconclusive [inhibitor, partial curve]
Cc1ccccc1OCc1nnc(SCC(=O)NCc2ccccc2)n1C | inactive
CCCC(C)C(=O)Nc1nnc(CCc2ccccc2)s1 (stereo unspecified) | inactive
COc1cccc(Nc2ccc(C(=O)O)cc2[N+](=O)[O-])c1 | inactive
Fc1ccc(C(CCNCc2cccs2)c2ccco2)cc1 (stereo unspecified) | inconclusive [inhibitor, single point]
COc1ccc(CN2C=C3C(=O)C(C)(OC(=O)CCc4ccccc4)C(=O)C=C3C=C2c2ccc(C#N)cc2)cc1 (stereo unspecified) | active: 9.28 µM
CC(=O)c1ccc(N2CCN(C(=S)Nc3cccc(Cl)c3)CC2)cc1 | inconclusive [inhibitor, partial curve]
O=C(Nc1cccc(NC(=O)c2cccs2)c1)c1ccc2c(c1)OCCO2 | inactive
COCCN(C(=O)COC(=O)CSc1ccc2ccccc2c1)c1c(N)n(Cc2ccccc2)c(=O)[nH]c1=O | inconclusive [inhibitor, partial curve, poor fit]
COc1ccc(-c2nc3ccccc3s2)cc1 | inactive
COc1cccc(C(=O)NCCNC(=O)c2ccco2)c1 | inactive

Structure (SMILES) | Potency
O=[N+]([O-])c1ccn(-c2nc(-c3ccccc3)cc(C(F)(F)F)n2)n1 | inconclusive [inhibitor, single point]
COC(=O)CC1C(=O)NCCN1C(=O)CSc1nc2ccc([N+](=O)[O-])cc2s1 (stereo unspecified) | active: 10.4 µM
O=C(NCc1ccccc1)Nc1cccn(Cc2ccccc2F)c1=O | inactive
COc1ccccc1CNS(=O)(=O)c1cc(-c2cc(C)no2)ccc1C(C)C | inconclusive [inhibitor, single point]
Cc1ccc(S(=O)(=O)N2CCN(Cc3nnc(-c4c(-c5ccccc5)noc4C)o3)CC2)cc1 | inconclusive [inhibitor, single point]
CCC1(c2ccc(F)cc2)NC(=O)N(CC(=O)NCC(=O)Nc2cccc(C)c2C)C1=O (stereo unspecified) | inactive
O=C1CC(c2ccc(Cl)cc2)n2nc(NS(=O)(=O)c3ccc(F)cc3)nc2N1 (stereo unspecified) | inconclusive [inhibitor, partial curve, poor fit]
Cc1cccc(NC(=O)CN2C(=O)NC(C)(c3ccc4ccccc4c3)C2=O)n1 (stereo unspecified) | inconclusive [inhibitor, single point]
COc1cccc(C(=O)C2CCCN(Cc3ccc(OC)c(Cn4cncn4)c3)C2)c1 (stereo unspecified) | inconclusive [inhibitor, single point]
C=CCNc1nc(-c2ccc(OC)cc2OC)cs1 | inactive
Cc1cc(C)cc(Oc2ccc(N)cc2)c1 | inactive
Cc1ccc(SC[C@H](C)CN2CC[C@H](C(C)(C)C)CCC2=O)cc1 | inactive
COC(=O)c1ccccc1NC(=O)N1CCc2ccc(NC(=O)c3ccccn3)cc2C1 | inconclusive [inhibitor, single point]
CC(=O)c1ccc(NC(=O)c2noc3c2CCCCC3)cc1 | inactive
Cn1cc(Br)c(C(=O)NNC(=O)c2ccccc2)n1 | inactive
CCN(CC)C(=O)c1[nH]cnc1C(=O)N[C@@H](C)C(=O)OC(C)(C)C | inconclusive [inhibitor, full curve, poor fit]
Cc1cccc(COCC(Cc2ccccc2)N2CCN(C(=O)c3ccc(Cl)c(Cl)c3)CCC2=O)c1 (stereo unspecified) | inconclusive [inhibitor, partial curve]
N=c1c(S(=O)(=O)c2ccccc2)cc2c(=O)n3ccccc3nc2n1C1CCCC1 | inconclusive [inhibitor, partial curve, poor fit]
Cc1ccc(NC(=S)NC2CCCC2)cc1C | inactive
CCC(C)[C@@H](CN(N=O)[C@@H](Cc1ccccc1)CN(C)N=O)N(CCc1ccccc1)N=O (stereo partly specified) | inconclusive [inhibitor, single point]
COc1ccc(N2CCN(C(=O)NCc3ccc(OC)c(Cl)c3)CC2)cc1 | inconclusive [inhibitor, single point]
N=c1c(C(=O)NCc2ccc3c(c2)OCO3)cc2c(=O)n3ccccc3nc2n1CC1CCCO1 (stereo unspecified) | inconclusive [inhibitor, full curve]
CC1(C)CC(=O)C2=C(C1)OC(N)=C(C#N)C21CCN(Cc2ccccc2)CC1 | inconclusive [inhibitor, single point]
